Measured values from patent US5525590A, “Cyclosporins and their use as pharmaceuticals” (Sandoz Ltd., priority 1987, dated 1996).
Read-outs that look alike come from different tables or passages of the source. At least one peptide structure holds a part that was inferred or is arguable (an end, a ring closure or a residue). Square brackets hold non-standard residues; d marks the D form. Peptide text beside a SMILES is read from it. MeBmt(OAc) = C/C=C/C[C@@H](C)[C@@H](OC(C)=O)[C@H](NC)C(=O)O; NMeL = CN[C@@H](CC(C)C)C(=O)O; NMeV = CN[C@H](C(=O)O)C(C)C; Nva = CCC[C@H](N)C(=O)O; Abu = CC[C@H](N)C(=O)O; Sar = CNCC(=O)O

How the values were obtained:
[1] = system: parental, sensitive line AUX B1 (subclone AB1 S11); test: Gain in colchicine sensitivity, MTT proliferation assay, sensitive line (in vitro-2); assay type: cell-based
[2] = system: multi-drug resistant (e.g. colchicine resistant) line CHR (subclone C5S3.2); test: Gain in colchicine sensitivity, MTT proliferation assay, resistant line (in vitro-2); assay type: cell-based
[3] = system: AM resistant human small lung cancer cell line; conditions: cited from earlier work
haemolysis zones = test: Local haemolysis in vitro in gel (example 4.1); assay type: cell-based
[4] = cyclosporin concentration 5.0 μg/ml

Structure (SMILES)	gain in sensitivity to colchicine, SL ([1]; cyclosporin 0.1 μg/ml)	gain in sensitivity to colchicine, SL ([1]; cyclosporin 1.0 μg/ml)	gain in sensitivity to colchicine, RL ([2]; cyclosporin 0.1 μg/ml)	gain in sensitivity to colchicine, RL ([2]; cyclosporin 1.0 μg/ml)	AM sensitisation ratio (AM IC50 -CS/AM IC50 +CS) [3, 4]	AM sensitisation ratio (AM IC50 -CS/AM IC50 +CS) ([3]; cyclosporin concentration 50.0 μg/ml)	IC50, method of example 4.1 (local haemolysis in gel) (haemolysis zones) [µg/mL]
C/C=C/C[C@@H](C)[C@@H](OC(C)=O)[C@H]1C(=O)N[C@@H](CC)C(=O)N(C)CC(=O)N(C)[C@@H](CC(C)C)C(=O)N[C@@H](C(C)C)C(=O)N(C)[C@@H](CC(C)C)C(=O)N[C@@H](C)C(=O)N[C@H](C)C(=O)N(C)[C@@H](CC(C)C)C(=O)N(C)[C@@H](CC(C)C)C(=O)N(C)[C@@H](C(C)C)C(=O)N1C [Cyclosporin 1.1]	4.0	8.0	1.4	30.8	> 20		
C/C=C/C[C@@H](C)[C@@H](OC(C)=O)[C@H]1C(=O)N[C@@H](C(C)C)C(=O)N(C)CC(=O)N(C)[C@@H](CC(C)C)C(=O)N[C@@H](C(C)C)C(=O)N(C)[C@@H](CC(C)C)C(=O)N[C@@H](C)C(=O)N[C@H](C)C(=O)N(C)[C@@H](CC(C)C)C(=O)N(C)[C@@H](CC(C)C)C(=O)N(C)[C@@H](C(C)C)C(=O)N1C [Cyclosporin 1.2] (cyclo(A[dA][NMeL][NMeL][NMeV][MeBmt(OAc)]V[Sar][NMeL]V[NMeL]))	4.4	8.1	2.0	59.8			
C/C=C/C[C@@H](C)[C@@H](OC(C)=O)[C@H]1C(=O)N[C@@H]([C@@H](C)O)C(=O)N(C)CC(=O)N(C)[C@@H](CC(C)C)C(=O)N[C@@H](C(C)C)C(=O)N(C)[C@@H](CC(C)C)C(=O)N[C@@H](C)C(=O)N[C@H](C)C(=O)N(C)[C@@H](CC(C)C)C(=O)N(C)[C@@H](CC(C)C)C(=O)N(C)[C@@H](C(C)C)C(=O)N1C [Cyclosporin 1.3] (cyclo(A[dA][NMeL][NMeL][NMeV][MeBmt(OAc)]T[Sar][NMeL]V[NMeL]))	5.3	10.7	1.8	97.9			
C/C=C/C[C@@H](C)[C@@H](OC(C)=O)[C@H]1C(=O)N[C@@H](CCC)C(=O)N(C)CC(=O)N(C)[C@@H](CC(C)C)C(=O)N[C@@H](C(C)C)C(=O)N(C)[C@@H](CC(C)C)C(=O)N[C@@H](C)C(=O)N[C@H](C)C(=O)N(C)[C@@H](CC(C)C)C(=O)N(C)[C@@H](CC(C)C)C(=O)N(C)[C@@H](C(C)C)C(=O)N1C [Cyclosporin 1.4] (cyclo(A[dA][NMeL][NMeL][NMeV][MeBmt(OAc)][Nva][Sar][NMeL]V[NMeL]))	6.7	11.7	1.7	97.6			
CCCC[C@@H](C)[C@@H](OC(C)=O)[C@H]1C(=O)N[C@@H](CC)C(=O)N(C)CC(=O)N(C)[C@@H](CC(C)C)C(=O)N[C@@H](C(C)C)C(=O)N(C)[C@@H](CC(C)C)C(=O)N[C@@H](C)C(=O)N[C@H](C)C(=O)N(C)[C@@H](CC(C)C)C(=O)N(C)[C@@H](CC(C)C)C(=O)N(C)[C@@H](C(C)C)C(=O)N1C [Cyclosporin 1.10]		11.6	1.1	28.9			
C/C=C/C[C@@H](C)[C@@H](OC(=O)OC)[C@H]1C(=O)N[C@@H](CC)C(=O)N(C)CC(=O)N(C)[C@@H](CC(C)C)C(=O)N[C@@H](C(C)C)C(=O)N(C)[C@@H](CC(C)C)C(=O)N[C@@H](C)C(=O)N[C@H](C)C(=O)N(C)[C@@H](CC(C)C)C(=O)N(C)[C@@H](CC(C)C)C(=O)N(C)[C@@H](C(C)C)C(=O)N1C [Cyclosporin 1.11]	6.3	17.6	1.1	36.7			
C/C=C/C[C@@H](C)[C@@H](OC(C)=O)[C@H]1C(=O)N[C@@H](CC)C(=O)N(C)CC(=O)N(C)[C@@H](CC(C)C)C(=O)N[C@@H](C(C)C)C(=O)N(C)[C@@H](CC(C)C)C(=O)N[C@@H](C)C(=O)N[C@H](COC(C)=O)C(=O)N(C)[C@@H](CC(C)C)C(=O)N(C)[C@@H](CC(C)C)C(=O)N(C)[C@@H](C(C)C)C(=O)N1C [Cyclosporin 1.15] (cyclo(A[dS](Ac)[NMeL][NMeL][NMeV][MeBmt(OAc)][Abu][Sar][NMeL]V[NMeL]))	4.7	12.9	1.5	38.3			
C/C=C/C[C@@H](C)C(=O)[C@H]1C(=O)N[C@@H](CC)C(=O)N(C)CC(=O)N(C)[C@@H](CC(C)C)C(=O)N[C@@H](C(C)C)C(=O)N(C)[C@@H](CC(C)C)C(=O)N[C@@H](C)C(=O)N[C@H](C)C(=O)N(C)[C@@H](CC(C)C)C(=O)N(C)[C@@H](CC(C)C)C(=O)N(C)[C@@H](C(C)C)C(=O)N1C [Cyclosporin 1.37]	5.8	12.1	1.4	82.4			
C/C=C/C[C@@H](C)[C@@H](O)[C@H]1C(=O)N[C@@H]([C@@H](C)CC)C(=O)N(C)CC(=O)N(C)[C@@H](CC(C)C)C(=O)N[C@@H](C(C)C)C(=O)N(C)[C@@H](CC(C)C)C(=O)N[C@@H](C)C(=O)N[C@H](C)C(=O)N(C)[C@@H](CC(C)C)C(=O)N(C)[C@@H](CC(C)C)C(=O)N(C)[C@@H](C(C)C)C(=O)N1C [Cyclosporin 2.2]	7.9	15.1	1.5	97.3			
C/C=C/C[C@@H](C)[C@@H](O)[C@H]1C(=O)N[C@@H](CC)C(=O)N(C)CC(=O)N(C)[C@@H](CC(C)C)C(=O)N[C@@H](C(C)C)C(=O)N(C)[C@@H](CC(C)C)C(=O)N[C@@H](C)C(=O)N[C@H](C)C(=O)N(C)[C@@H](CC(C)C)C(=O)N(C)[C@@H](CC(C)C)C(=O)N(C)[C@@H]([C@@H](C)CC)C(=O)N1C [Cyclosporin 2.4]	4.7	15.7	1.2	34.5	> 30	> 30	
COCCCC[C@@H](C)[C@@H](O)[C@H]1C(=O)N[C@@H]([C@@H](C)O)C(=O)N(C)CC(=O)N(C)[C@@H](CC(C)C)C(=O)N[C@@H](C(C)C)C(=O)N(C)[C@@H](CC(C)C)C(=O)N[C@@H](C)C(=O)N[C@H](C)C(=O)N(C)[C@@H](CC(C)C)C(=O)N(C)[C@@H](CC(C)C)C(=O)N(C)[C@@H](C(C)C)C(=O)N1C [Cyclosporin 4.8]							0.1
C=C/C=C\C[C@@H](C)[C@@H](O)[C@H]1C(=O)N[C@@H]([C@@H](C)O)C(=O)N(C)CC(=O)N(C)[C@@H](CC(C)C)C(=O)N[C@@H](C(C)C)C(=O)N(C)[C@@H](CC(C)C)C(=O)N[C@@H](C)C(=O)N[C@H](C)C(=O)N(C)[C@@H](CC(C)C)C(=O)N(C)[C@@H](CC(C)C)C(=O)N(C)[C@@H](C(C)C)C(=O)N1C [Cyclosporin 6.4]							0.03
CCCCC[C@@H](C)[C@@H](O)[C@H]1C(=O)N[C@@H]([C@@H](C)O)C(=O)N(C)CC(=O)N(C)[C@@H](CC(C)C)C(=O)N[C@@H](C(C)C)C(=O)N(C)[C@@H](CC(C)C)C(=O)N[C@@H](C)C(=O)N[C@H](C)C(=O)N(C)[C@@H](CC(C)C)C(=O)N(C)[C@@H](CC(C)C)C(=O)N(C)[C@@H](C(C)C)C(=O)N1C [Cyclosporin 6.15]							0.057
